The list shows a part of the results.
Experiments:
Experiment in all cases: glycan array binding signal (z-score within array); higher = stronger binding
Settings in all cases: glycan notation: IUPAC condensed, linker removed
[1] = target: Gal(a1-4)Gal(b1-4)GlcNAc(b1-2)Man(a1-3)[Gal(a1-4)Gal(b1-4)GlcNAc(b1-2)Man(a1-6)]Man(b1-4)GlcNAc(b1-4)GlcNAc
Outline: (§1)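 Negative Z-scores can be read as non-binding. The Z-score is calculated within each array and then averaged across arrays of one protein sequence at different concentrations or buffers and across linkers. Arrays, 3228 in all, were curated from the Consortium for Functional Glycomics database and kept only where the protein sequence was available.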

[2] = target: Gal(a1-4)Gal(b1-4)GlcNAc(b1-3)Gal(b1-4)Glc
Outline: as §1

Gal(a1-4)GlcNAc = target: Gal(a1-4)GlcNAc
Outline: as §1

Gal(a1-6)Glc = target: Gal(a1-6)Glc
Outline: as §1

Gal(b1-2)Gal = target: Gal(b1-2)Gal
Outline: as §1

Gal(b1-3)Gal = target: Gal(b1-3)Gal
Outline: as §1

Gal(b1-3)Gal(b1-4)GlcNAc = target: Gal(b1-3)Gal(b1-4)GlcNAc
Outline: as §1

Gal(b1-3)GalNAc = target: Gal(b1-3)GalNAc
Outline: as §1

[3] = target: Gal(b1-3)GalNAc(a1-3)[Fuc(a1-2)]Gal(b1-4)Glc
Outline: as §1

[4] = target: Gal(b1-3)GalNAc(a1-3)[Fuc(a1-2)]Gal(b1-4)GlcNAc
Outline: as §1

Gal(b1-3)GalNAc(b1-3)Gal = target: Gal(b1-3)GalNAc(b1-3)Gal
Outline: as §1

[5] = target: Gal(b1-3)GalNAc(b1-3)Gal(a1-4)Gal(b1-4)Glc
Outline: as §1

[6] = target: Gal(b1-3)GalNAc(b1-4)Gal(b1-4)Glc
Outline: as §1

[7] = target: Gal(b1-3)GalNAc(b1-4)[Neu5Ac(a2-3)]Gal(b1-4)Glc
Outline: as §1

Gal(b1-3)GlcNAc = target: Gal(b1-3)GlcNAc
Outline: as §1

[8] = target: Gal(b1-3)GlcNAc(a1-3)Gal(b1-4)GlcNAc
Outline: as §1

[9] = target: Gal(b1-3)GlcNAc(a1-6)Gal(b1-4)GlcNAc
Outline: as §1

Gal(b1-3)GlcNAc(b1-2)Man = target: Gal(b1-3)GlcNAc(b1-2)Man
Outline: as §1

[10] = target: Gal(b1-3)GlcNAc(b1-2)Man(a1-3)[Gal(b1-3)GlcNAc(b1-2)Man(a1-6)]Man(b1-4)GlcNAc(b1-4)GlcNAc
Outline: as §1

[11] = target: Gal(b1-3)GlcNAc(b1-2)Man(a1-3)[Gal(b1-3)GlcNAc(b1-2)Man(a1-6)]Man(b1-4)GlcNAc(b1-4)[Fuc(a1-6)]GlcNAc
Outline: as §1

[12] = target: Gal(b1-3)GlcNAc(b1-2)Man(a1-3)[GlcNAc(b1-4)][Gal(b1-3)GlcNAc(b1-2)Man(a1-6)]Man(b1-4)GlcNAc(b1-4)GlcNAc
Outline: as §1

[13] = target: Gal(b1-3)GlcNAc(b1-2)[Gal(b1-3)GlcNAc(b1-6)]Man(a1-6)[Gal(b1-3)GlcNAc(b1-2)Man(a1-3)]Man(b1-4)GlcNAc(b1-4)GlcNAc
Outline: as §1

[14] = target: Gal(b1-3)GlcNAc(b1-3)Gal(b1-3)GlcNAc
Outline: as §1

[15] = target: Gal(b1-3)GlcNAc(b1-3)Gal(b1-4)Glc
Outline: as §1

[16] = target: Gal(b1-3)GlcNAc(b1-3)Gal(b1-4)GlcNAc
Outline: as §1

[17] = target: Gal(b1-3)GlcNAc(b1-3)Gal(b1-4)GlcNAc(b1-2)Man(a1-3)[Gal(b1-3)GlcNAc(b1-3)Gal(b1-4)GlcNAc(b1-2)Man(a1-6)]Man(b1-4)GlcNAc(b1-4)GlcNAc
Outline: as §1

[18] = target: Gal(b1-3)GlcNAc(b1-3)Gal(b1-4)GlcNAc(b1-2)[Gal(b1-3)GlcNAc(b1-3)Gal(b1-4)GlcNAc(b1-6)]Man(a1-6)[Gal(b1-3)GlcNAc(b1-3)Gal(b1-4)GlcNAc(b1-2)Man(a1-3)]Man(b1-4)GlcNAc(b1-4)[Fuc(a1-6)]GlcNAc
Outline: as §1

[19] = target: Gal(b1-3)GlcNAc(b1-3)Gal(b1-4)GlcNAc(b1-3)Gal(b1-4)GlcNAc(b1-2)[Gal(b1-3)GlcNAc(b1-3)Gal(b1-4)GlcNAc(b1-3)Gal(b1-4)GlcNAc(b1-6)]Man(a1-6)[Gal(b1-3)GlcNAc(b1-3)Gal(b1-4)GlcNAc(b1-3)Gal(b1-4)GlcNAc(b1-2)Man(a1-3)]Man(b1-4)GlcNAc(b1-4)[Fuc(a1-6)]GlcNAc
Outline: as §1

[20] = target: Gal(b1-3)GlcNAc(b1-3)Gal(b1-4)GlcNAc(b1-6)[Gal(b1-3)GlcNAc(b1-3)]Gal(b1-4)Glc
Outline: as §1

[21] = target: Gal(b1-3)GlcNAc(b1-3)Gal(b1-4)[Fuc(a1-3)]GlcNAc
Outline: as §1

[22] = target: Gal(b1-3)GlcNAc(b1-3)Gal(b1-4)[Fuc(a1-3)]GlcNAc(b1-6)[Gal(b1-3)GlcNAc(b1-3)]Gal(b1-4)Glc
Outline: as §1

[23] = target: Gal(b1-3)GlcNAc(b1-3)GalNAc
Outline: as §1

[24] = target: Gal(b1-3)GlcNAc(b1-6)Gal(b1-4)GlcNAc
Outline: as §1

[25] = target: Gal(b1-3)GlcNAc(b1-6)GalNAc
Outline: as §1

[26] = target: Gal(b1-3)GlcNAc(b1-6)[Gal(b1-3)]GalNAc
Outline: as §1

Gal(b1-3)GlcNAc6S = target: Gal(b1-3)GlcNAc6S
Outline: as §1

[27] = target: Gal(b1-3)[Fuc(a1-4)]GlcNAc
Outline: as §1

[28] = target: Gal(b1-3)[Fuc(a1-4)]GlcNAc(b1-2)Man
Outline: as §1

[29] = target: Gal(b1-3)[Fuc(a1-4)]GlcNAc(b1-2)Man(a1-3)[Gal(b1-3)[Fuc(a1-4)]GlcNAc(b1-2)Man(a1-6)]Man(b1-4)GlcNAc(b1-4)[Fuc(a1-6)]GlcNAc
Outline: as §1

[30] = target: Gal(b1-3)[Fuc(a1-4)]GlcNAc(b1-3)Gal(b1-3)[Fuc(a1-4)]GlcNAc
Outline: as §1

[31] = target: Gal(b1-3)[Fuc(a1-4)]GlcNAc(b1-3)Gal(b1-4)GlcNAc
Outline: as §1

[32] = target: Gal(b1-3)[Fuc(a1-4)]GlcNAc(b1-3)Gal(b1-4)[Fuc(a1-3)]GlcNAc
Outline: as §1

[33] = target: Gal(b1-3)[Fuc(a1-4)]GlcNAc(b1-6)GalNAc
Outline: as §1

[34] = target: Gal(b1-3)[GlcNAc(b1-6)]GalNAc
Outline: as §1

[35] = target: Gal(b1-3)[Neu5Ac(a2-6)]GalNAc
Outline: as §1

B1: WGA (Triticum vulgare) (protein)
chain: QRCGEQGSNMECPNNLCCSQYGYCGMGGDYCGKGCQNGACWTSKRCGSQAGGATCPNNHCCSQYGHCGFGAEYCGAGCQGGPCRADIKCGSQSGGKLCPNNLCCSQWGFCGLGSEFCGGGCQSGACSTDKPCGKDAGGRVCTNNYCCSKWGSCGIGPGYCGAGCQSGGCDAVFAGAITANSTLLAE
glycan array binding signal (z-score) [1]: -0.064
glycan array binding signal (z-score) [2]: -0.226
glycan array binding signal (z-score) (Gal(a1-4)GlcNAc): -0.352
glycan array binding signal (z-score) (Gal(a1-6)Glc): -0.327
glycan array binding signal (z-score) (Gal(b1-2)Gal): -0.351
glycan array binding signal (z-score) (Gal(b1-3)Gal): -0.372
glycan array binding signal (z-score) (Gal(b1-3)Gal(b1-4)GlcNAc): -0.293
glycan array binding signal (z-score) (Gal(b1-3)GalNAc): -0.339
glycan array binding signal (z-score) [3]: -0.366
glycan array binding signal (z-score) [4]: 0.106
glycan array binding signal (z-score) (Gal(b1-3)GalNAc(b1-3)Gal): -0.346
glycan array binding signal (z-score) [5]: -0.328
glycan array binding signal (z-score) [6]: -0.338
glycan array binding signal (z-score) [7]: -0.39
glycan array binding signal (z-score) (Gal(b1-3)GlcNAc): -0.349
glycan array binding signal (z-score) [8]: -0.155
glycan array binding signal (z-score) [9]: -0.344
glycan array binding signal (z-score) (Gal(b1-3)GlcNAc(b1-2)Man): -0.277
glycan array binding signal (z-score) [10]: -0.195
glycan array binding signal (z-score) [11]: -0.293
glycan array binding signal (z-score) [12]: 0.703
glycan array binding signal (z-score) [13]: -0.291
glycan array binding signal (z-score) [14]: -0.315
glycan array binding signal (z-score) [15]: -0.373
glycan array binding signal (z-score) [16]: -0.22
glycan array binding signal (z-score) [17]: -0.225
glycan array binding signal (z-score) [18]: -0.056
glycan array binding signal (z-score) [19]: -0.123
glycan array binding signal (z-score) [20]: -0.157
glycan array binding signal (z-score) [21]: -0.405
glycan array binding signal (z-score) [22]: -0.322
glycan array binding signal (z-score) [23]: -0.358
glycan array binding signal (z-score) [24]: -0.362
glycan array binding signal (z-score) [25]: -0.345
glycan array binding signal (z-score) [26]: -0.339
glycan array binding signal (z-score) (Gal(b1-3)GlcNAc6S): -0.379
glycan array binding signal (z-score) [27]: -0.353
glycan array binding signal (z-score) [28]: -0.278
glycan array binding signal (z-score) [29]: -0.172
glycan array binding signal (z-score) [30]: -0.336
glycan array binding signal (z-score) [31]: -0.209
glycan array binding signal (z-score) [32]: -0.349
glycan array binding signal (z-score) [33]: -0.309
glycan array binding signal (z-score) [34]: -0.088
glycan array binding signal (z-score) [35]: -0.353
